Laboratory results: publication PMC5241739, “Structure of the Toll/Interleukin-1 Receptor (TIR) Domain of the B-cell Adaptor That Links Phosphoinositide Metabolism with the Negative Regulation of the Toll-like Receptor (TLR) Signalosome*^([image sbox.jpg])” (The Journal of Biological Chemistry, 2016)
These are yes or no findings as the source states them, for the method shown.

Biological target: N-terminal domain of human BCAP comprising residues 7–142, lysine residues dimethylated (as crystallised) (human) (UniProt Q6ZUJ8)
Experiment: crystal structure; lysine-dimethylated BCAP 7-142, sitting drop at 20 °C, 2.5 Å; a single molecule in the asymmetric unit; both purified

B1: N-terminal domain of human BCAP comprising residues 7–142, lysine residues dimethylated (as crystallised) (domain or fragment, UniProt Q6ZUJ8 7-142)
chain: PRGCDILIVYSPDAEEWCQYLQTLFLSSRQVRSQKILTHRLGPEASFSAEDLSLFLSTRCVVVLLSAELVQHFHKPALLPLLQRAFHPPHRVVRLLCGVRDSEEFLDFFPDWAHWQELTCDDEPETYVAAVKKAIS
modifications: lysine residues dimethylated
binding: no binding
